For 78 compounds, cell viability results are on record in the supplement of paper PMC10600219.

SMILES strings stand for the structures. Values joined by “and” are separate entries in the source; they are usually repeats but may differ in a detail not shown here. Equal values may be shown once. Where a name gives a salt, the structure may show the parent alone. ± gives the standard deviation of the averaged measurements. Whole data set: some 2,800 compounds, median “cell viability relative to vehicle” near 0.98, cut for the lowest 2% near 0.45. This is one part of the list.

This assay deals with NCI-H2228 alectinib-DTP. The assay is described as follows: cell viability relative to vehicle (fraction of vehicle); NCI-H2228 is an ALK-positive lung cancer line and DTP means drug-tolerant persister; higher = less growth inhibition. Conditions: 100 nM; treatment time 6 days. In a few lines: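 Values give cell viability as a fraction of vehicle-treated cells. Parental and drug-tolerant persister NCI-H2228 cells (persisters made with 1000 nM of a targeted drug for 13 days) were exposed in 384-well plates to the 3114-agent TargetMol anti-cancer compound library at 100 nM, with DMSO as vehicle. ATP was then read after 6 days by the CellTiter-Glo 3D Cell Viability Assay.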
`CC(C)[C@H](O)C(=O)N[C@@H](C)C(=O)N[C@@H]1C(=O)N(C)CCc2ccccc21` [Semagacestat]: the cell viability came out at 1.01.

Compound `NCCCS(=O)(=O)O` [Homotaurine] gave a cell viability of 0.937.

For the compound `O=C(O)/C(Cc1ccccc1[N+](=O)[O-])=N/Nc1nc(-c2ccc(Cl)c(Cl)c2)cs1`, the cell viability is 0.872.

Regarding `COc1cc(CCc2cc(NC(=O)c3ccc(N4CC(C)NC(C)C4)cc3)n[nH]2)cc(OC)c1` (stereo not drawn), the cell viability came out at 0.851.

As to `CC(C)n1c(=O)n(C)c2cnc3cc(F)c(-c4ccc(OCCCN5CCCCC5)nc4)cc3c21`, the cell viability amounted to 0.883.

For `Nc1ccc(C(=O)O)c(O)c1` [Aminopar], the cell viability came out at 0.995.

In turn, `Nc1ccc(C(=O)O)c(O)c1` [Sodium 4-aminosalicylate dihydrate] yielded a cell viability of 1.2.

As to `CNCc1ccc(C)c(NC(=O)c2ccc(Nc3nc(-c4ccccc4)c4ccccc4n3)cc2)c1`, the cell viability amounted to 0.99.

In the case of `CCCCN1CCCC[C@H]1C(=O)Nc1c(C)cccc1C` [Levobupivacaine], the cell viability is 0.862.

As to `c1ccc(CNc2nc(N3CCOc4ccccc43)nc3c2CCCC3)cc1` [ML241 hydrochloride], the cell viability is 1.

`CCCCC/C=C\C/C=C\C/C=C\CCCCC(=O)O` [gamma-Linolenic acid]: the cell viability came out at 0.958.

On to `Clc1ccc(C(c2ccccc2Cl)C(Cl)Cl)cc1` (stereo not drawn) [Mitotan], for which the cell viability stood at 0.957.

Take `O=C(O)Cn1nnc(-c2cc(N3CCC(Oc4cc(F)ccc4Br)CC3)no2)n1`: the cell viability was 0.993.

In turn, `O=C(O)c1ccccc1Nc1cccc(C(F)(F)F)c1` [Flufenamic acid] had a cell viability of 0.845.

`c1ccc(-c2nn3c(c2-c2ccnc4cc(OCCN5CCOCC5)ccc24)CCC3)nc1`: the cell viability was 0.978.

`CC(C)NNC(=O)c1ccncc1` [Iproniazid Phosphate]: the cell viability stood at 0.934.

In turn, `O=C1S/C(=C\c2ccc(OCc3cccc(B(O)O)c3)cc2)C(=O)N1Cc1ccc(F)cc1` registered a cell viability of 0.815.

In turn, `Cc1ccc(Sc2cncc3sc(C(N)=O)cc23)cc1` had a cell viability of 1.04.

For the compound `CSCC[C@H](NC(=O)[C@H](Cc1c[nH]c2ccccc12)NC(=O)CCNC(=O)OC(C)(C)C)C(=O)N[C@@H](CC(=O)O)C(=O)N[C@@H](Cc1ccccc1)C(N)=O` [Pentagastrin], the cell viability was determined as 0.855.

The compound `Cc1c(C(=O)Nc2ccc(N3C[C@@H](C)O[C@@H](C)C3)nc2)cccc1-c1ccc(OC(F)(F)F)cc1` had a cell viability of 0.993.

In turn, `O=C(NCCN1CCOCC1)Nc1ccc(C(=O)/C=C/c2cccc(N3CCOCC3)n2)cc1` returned a cell viability of 1.06.

`Nc1cc(C(F)(F)F)c(-c2cc(N3CCOCC3)nc(N3CCOCC3)n2)cn1` [Buparlisib] gave a cell viability of 0.766.

As for `CCOC(N)=O` [Urethane], the cell viability was determined as 0.983.

The compound `Nc1ncccc1-c1nc2ccc(-c3ccccc3)nc2n1-c1ccc(C2(N)CCC2)cc1` [Miransertib] had a cell viability of 0.777.

For the compound `O=c1cc(N2CCOCC2)oc2c(-c3ccccc3)cccc12`, the cell viability came out at 1.15.

As to `O=C1c2cccc(O)c2C(=O)c2c(O)cccc21` [Antrapurol], the cell viability amounted to 0.878.

Compound `COc1ccc2cc1Oc1ccc(cc1)C[C@H]1c3cc(c(OC)cc3CCN1C)Oc1c(O)c(OC)cc3c1[C@H](C2)N(C)CC3` [Fangchinoline] showed a cell viability of 0.967 ± 0.087.

For `CN1c2ccccc2C(=O)N2CCc3c([nH]c4ccccc34)C21` (stereo in doubt) [Evodiamine], the cell viability worked out at 0.955.

`OC(CCN1CCCCC1)(c1ccccc1)c1ccccc1` [Loxeen]: the cell viability amounted to 1.04.

In turn, `COc1cc(Nc2ncc3c(n2)-c2ccc(Cl)cc2C(c2c(F)cccc2OC)=NC3)ccc1C(=O)O` [Alisertib] came in with a cell viability of 0.721.

`CCCCC(=O)N(Cc1ccc(-c2ccccc2-c2nnn[nH]2)cc1)[C@H](C(=O)O)C(C)C` [Valsartan]: the cell viability is 1.04.

For the compound `Cc1ccc(Nc2nccc(N(C)c3ccc4c(C)n(C)nc4c3)n2)cc1S(N)(=O)=O` [Pazopanib], the cell viability worked out at 0.894.

`CCc1ccc(/C=C2/SC(=S)NC2=O)cc1` returned a cell viability of 0.947.

The compound `Cc1cc(Nc2ncnc3ccc(NC4=NC(C)(C)CO4)cc23)ccc1Oc1ccn2ncnc2c1` [Irbinitinib] gave a cell viability of 0.906.

With `OCC(CO)N[C@H]1C[C@](O)(CO)[C@@H](O)[C@H](O)[C@H]1O` [Voglibose], the cell viability was determined as 0.985.

The compound `CC(C)=CCC[C@](C)(O[C@@H]1O[C@H](CO)[C@@H](O)[C@H](O)[C@H]1O)[C@H]1CC[C@]2(C)[C@@H]1[C@H](O)C[C@@H]1[C@@]3(C)CC[C@H](O[C@@H]4O[C@H](CO)[C@@H](O)[C@H](O)[C@H]4O[C@@H]4O[C@H](CO)[C@@H](O)[C@H](O)[C@H]4O)C(C)(C)[C@@H]3CC[C@]12C` [Ginsenoside Rd] returned a cell viability of 0.966.

For the compound `C=CCNc1ncnc2ccc(Br)cc12`, the cell viability amounted to 1.08.

On to `COC(=O)/C=C/C(=O)OC` [Dimethyl fumarate], for which the cell viability came out at 1.12.

`CC(C)=CCC[C@](C)(O)[C@H]1CC[C@]2(C)[C@@H]1[C@H](O)C[C@@H]1[C@@]3(C)CC[C@H](O)C(C)(C)[C@@H]3[C@@H](O[C@@H]3O[C@H](CO)[C@@H](O)[C@H](O)[C@H]3O[C@@H]3O[C@@H](C)[C@H](O)[C@@H](O)[C@H]3O)C[C@]12C` [Ginsenoside Rg2] came in with a cell viability of 0.994.

For the compound `O=C(NNc1nc2cc(F)ccc2n2cccc12)c1cnccn1`, the cell viability was 0.639.

`CC(C)c1cc(C(C)C)c(CC(=O)NS(=O)(=O)Oc2c(C(C)C)cccc2C(C)C)c(C(C)C)c1` [Avasimibe] came in with a cell viability of 0.857.

With `O=C(NC(Cc1cc(=O)[nH]c2ccccc12)C(=O)O)c1ccc(Cl)cc1` (stereo not drawn) [Rebamipide], the cell viability was 0.928.

`CCN1C(=O)C=CC1=O` [N-Ethylmaleimide] registered a cell viability of 1.05.

The compound `COc1ccc2[nH]cc(/C=C3\C(=O)Nc4ccc(NC(=O)CCN5CCCCC5)cc43)c2c1` displayed a cell viability of 0.999.

`O=C1c2c(O)ccc(O)c2C(=O)c2c(NCCNCCO)ccc(NCCNCCO)c21` [Mitoxantrone] displayed a cell viability of 0.386.

In turn, `CCOC(=O)c1ccc(NC2CCCCC2)c(N)c1` [Ferrostatin-1] yielded a cell viability of 0.967.

As for `CC/C(=C(/c1ccc(O)cc1)c1ccc(OCCNC)cc1)c1ccccc1` [Endoxifen E-isomer hydrochloride], the cell viability was found to be 1.12.

With `CCCCc1ncc(/C=C(\Cc2cccs2)C(=O)O)n1Cc1ccc(C(=O)O)cc1` [Eprosartan Mesylate], the cell viability came to 1.08.

`CCCCCCCCOc1ccccc1C(=O)Nc1ccc(C(=O)OCC[N+](C)(CC)CC)cc1` [Otilonium bromide]: the cell viability amounted to 0.903.

`CN1CCCN(C(=O)c2cccc(-c3ccc(/C=C4/C(=O)Nc5ccc(Cl)cc54)o3)c2)CC1` returned a cell viability of 0.984.

Turning to `CNc1ccc([N+](=O)[O-])c(Nc2ccc3[nH]ncc3c2)n1`, the cell viability came out at 0.991.

On to `O=C(O)CCC(=O)c1ccc(-c2ccccc2)cc1` [Fenbufen], for which the cell viability was determined as 0.95.

With `CC(CNC(=O)c1cccnc1)NC(=O)c1cccnc1` (stereo not drawn) [Nicaraven], the cell viability turned out to be 1.07.

In the case of `COc1ccc(/C=C/C(=O)NO)c(-c2ccc(-c3ccccc3)cc2)c1`, the cell viability was determined as 1.03.

On to `CN(c1ncccc1CNc1nc(Nc2ccc3c(c2)CC(=O)N3)ncc1C(F)(F)F)S(C)(=O)=O`, for which the cell viability is 0.934 and 1.16.

On to `CCOC(=O)c1cc(O)c(O)c(O)c1` [Ethyl gallate], for which the cell viability was 0.912.

The compound `CN(C)CCc1c[nH]c2ccc(CS(=O)(=O)N3CCCC3)cc12` [Almotriptan Malate] displayed a cell viability of 0.96.

As to `Cc1cccc(N(C)C(=S)Oc2ccc3ccccc3c2)c1` [Tolnaftate], the cell viability is 1.23.

`CCCCC/C=C\C/C=C\CCCCCCCC(=O)O` [Linoleic acid] had a cell viability of 0.87.

In the case of `N[C@@H](COP(=O)(O)O)C(=O)O` [Phosphoserine], the cell viability amounted to 0.962.

The compound `CN1CCN(c2ccc3nc(-c4c(N)c5c(F)cccc5[nH]c4=O)[nH]c3c2)CC1` [Dovitinib] showed a cell viability of 0.832.

In the case of `COc1cc2c(cc1OC)CN(C(=O)[C@@H](NCc1ccncc1)C(C)(C)C)CC2`, the cell viability was determined as 1.05.

In turn, `O=c1[nH]c(=O)n([C@H]2C[C@H](O)[C@@H](CO)O2)cc1I` [Dendrid] yielded a cell viability of 0.937.

In turn, `Cc1cc(=O)c(C(=O)N[C@@H](C(=O)N[C@@H]2C(=O)N3C(C(=O)O)=C(CSc4nnnn4C)CS[C@H]23)c2ccc(O)cc2)c[nH]1` [Cefpiramide acid] came in with a cell viability of 1.16.

`CC(=O)O[C@@H]1C[C@H](O)[C@@]23CO[C@@H](O)[C@]1(C)[C@@H]2C[C@@H](O)[C@]1(C)[C@@H]3C(=O)[C@H](OC(C)=O)[C@@]2(C)[C@H](c3ccoc3)C[C@H]3O[C@]321` [Toosendanin] came in with a cell viability of 0.408.

Regarding `Nc1cc(C(F)(F)F)c(-c2nc(N3CCOCC3)nc(N3CCOCC3)n2)cn1`, the cell viability is 0.774.

Take `COc1cc2c(NC3CCN(CC4CCCCC4)CC3)nc(N3CCCN(C(C)C)CC3)nc2cc1OCCCN1CCCCC1`: the cell viability came to 1.05.

For the compound `COc1ccc(-c2ccc3cc(C(=O)O)ccc3c2)cc1C12CC3CC(CC(C3)C1)C2` [Adapalene], the cell viability worked out at 0.983.

`NNC(=O)c1ccncc1` [Isoniazid] yielded a cell viability of 1.03.

The compound `COc1ccc(/C=C/c2cc(O)cc(O[C@@H]3O[C@H](CO)[C@@H](O)[C@H](O)[C@H]3O)c2)cc1O` [Rhaponiticin] came in with a cell viability of 1.1.

Compound `O=C(Nc1ncc(SCCN2CCCC2)s1)[C@]1(c2ccc(S(=O)(=O)C3CC3)cc2)C[C@H]1C1CCCCC1` returned a cell viability of 0.931.

Compound `O=C(O)CCCN1CCC(O[C@@H](c2ccc(Cl)cc2)c2ccccn2)CC1` [Bepotastine Besilate] returned a cell viability of 1.02.

`Cc1nnc(NC(=O)c2nc(S(=O)(=O)Cc3ccc(F)cc3)ncc2Cl)s1` registered a cell viability of 1.02.

`Cc1ccc(S(=O)(=O)OCC(=O)Nc2ccc(C(=O)O)c(O)c2)cc1` displayed a cell viability of 0.898.

`C[C@H]1C[C@H]2[C@@H]3CCC4=CC(=O)C=C[C@]4(C)[C@H]3C(=O)C[C@]2(C)[C@@]1(O)C(=O)CO` [Meprednisone] displayed a cell viability of 1.12.

Compound `COc1ccc(-c2cc(=O)c3c(OC)c(OC)c(OC)c(OC)c3o2)cc1OC` [Nobiletin] displayed a cell viability of 0.921.

As for `Cc1ccc(C(=O)Nc2cccc(C(F)(F)F)c2)cc1Nc1nc(-c2cccnc2)nc2c1cnn2C`, the cell viability was 0.974.

The compound `O=C(NCc1ccc(S(=O)(=O)c2cc(F)cc(F)c2)cc1)c1ccc2nccn2c1` had a cell viability of 0.34.
